From article PMC4321167
No constants are given. Whether binding was seen depends on the method and setting. Some binding calls cover weakened binding; strength is not graded here. For some of these results: Sequences can lack the tags named with a protein.

The chains behind the UniProt entries cited, without tags or fusion partners.
UniProt Q84JK2: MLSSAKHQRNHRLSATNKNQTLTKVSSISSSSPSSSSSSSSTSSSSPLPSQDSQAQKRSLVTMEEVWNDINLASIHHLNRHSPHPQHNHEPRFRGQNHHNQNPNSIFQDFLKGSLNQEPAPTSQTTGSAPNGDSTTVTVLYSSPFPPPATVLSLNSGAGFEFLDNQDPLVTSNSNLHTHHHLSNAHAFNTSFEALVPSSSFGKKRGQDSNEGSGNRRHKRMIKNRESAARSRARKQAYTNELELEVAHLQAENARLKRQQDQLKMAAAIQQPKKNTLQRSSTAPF
UniProt Q9C6P3: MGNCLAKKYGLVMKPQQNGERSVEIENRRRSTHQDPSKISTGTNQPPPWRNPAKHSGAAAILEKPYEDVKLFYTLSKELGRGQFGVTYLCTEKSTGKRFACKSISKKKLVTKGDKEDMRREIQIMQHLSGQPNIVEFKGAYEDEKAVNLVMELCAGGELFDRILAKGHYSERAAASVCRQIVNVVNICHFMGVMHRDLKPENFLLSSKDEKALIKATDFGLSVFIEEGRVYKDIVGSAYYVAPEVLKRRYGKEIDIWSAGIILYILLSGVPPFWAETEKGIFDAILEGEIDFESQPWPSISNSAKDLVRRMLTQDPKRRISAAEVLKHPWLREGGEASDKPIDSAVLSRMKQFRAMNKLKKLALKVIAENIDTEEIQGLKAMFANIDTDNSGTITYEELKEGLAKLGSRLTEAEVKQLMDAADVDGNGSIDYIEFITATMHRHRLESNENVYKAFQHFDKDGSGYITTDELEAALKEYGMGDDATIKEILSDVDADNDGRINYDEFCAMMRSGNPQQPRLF

Columns and labels:
[1] = target: GST-FD (Arabidopsis) (UniProt Q84JK2); experiment: pull-down; GST-tagged bait on glutathione sepharose 4B resin, 5 μg purified Trx-His-CPK in 400 μl pull-down buffer (25 mM HEPES-KOH pH 7.5, 100 mM NaCl, 1 mM EGTA, 1 mM DTT, 0.1% NP-40), 2 h at 4°C; immunoblot with anti-His antibody; both purified
[2] = target: T1, GST-FDP (FD PARALOG) (Arabidopsis) (UniProt Q7PCC6); experiment: as above
T1 sequence: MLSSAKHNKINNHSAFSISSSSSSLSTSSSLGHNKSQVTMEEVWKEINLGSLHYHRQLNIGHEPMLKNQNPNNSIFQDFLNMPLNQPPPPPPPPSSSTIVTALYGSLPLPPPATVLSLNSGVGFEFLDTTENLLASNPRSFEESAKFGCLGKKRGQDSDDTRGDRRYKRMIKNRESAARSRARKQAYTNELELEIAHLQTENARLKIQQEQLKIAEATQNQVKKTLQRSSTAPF

[3] = target: GST-FD (Arabidopsis) (UniProt Q84JK2); experiment: pull-down; GST-tagged bait on glutathione sepharose 4B resin, 5 μg purified Trx-His-CPK in 400 μl pull-down buffer plus (25 mM HEPES-KOH pH 7.5, 100 mM NaCl, 1 mM CaCl2, 1 mM DTT, 0.1% NP-40), 2 h at 4°C; immunoblot with anti-His antibody; both purified
[4] = target: T1, GST-FDP (FD PARALOG) (Arabidopsis); experiment: as above

Measured: binding

Trx-His-CPK33 (from UniProt Q9C6P3 1-521) (enzyme)
binds: all assays above
